# According to PubChem BioAssay AID624417 (National Center for Advancing Translational Sciences (NCATS), 2012):
# In all, about 410,000 compounds went through this assay and about 6,400 (1.6%) were called active. This list was built around the results that the source calls inconclusive (neither active nor inactive); the mix of calls is not that of the screen. The call rests on the fitted dose curve; in most records, active means well fitted inhibition curve with a large enough effect; inconclusive means small, poorly fitted or top-dose-only effect; inactive means no such curve, though single readings can be large or run the other way. Potencies of inconclusive entries are left out as doubtful fits.
# Molecular target: Glucagon-like peptide 1 receptor (Homo sapiens) (UniProt P43220)
# Test: qHTS of GLP-1 Receptor Inverse Agonists (Inhibition Mode); further: nearly all actives have a fitted effect of over 55% in size
# Conditions: HEK293 GLP-1R CRE-luciferase, luminescence, 24 h, GLP-1R form is constitutively active; activity change, negative = inhibition: at 38.3 µM (top of the series) unless noted
# Summary of the method: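 Stable HEK293 clone (constitutively active GLP-1R + cAMP-response luciferase); 200 cells/uL plated, 12 h pre-culture, compound 24 hr, 37 deg C/5% CO2; detection reagent 12 min RT; luminescence.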
# On the % scale 0 is the no-effect control and ±100 the full control effect; potency means the concentration at half of the fitted maximal effect; tags describe the fitted curve by direction and shape.
# UniProt P43220, sequence (P43220 whole entry, looked up): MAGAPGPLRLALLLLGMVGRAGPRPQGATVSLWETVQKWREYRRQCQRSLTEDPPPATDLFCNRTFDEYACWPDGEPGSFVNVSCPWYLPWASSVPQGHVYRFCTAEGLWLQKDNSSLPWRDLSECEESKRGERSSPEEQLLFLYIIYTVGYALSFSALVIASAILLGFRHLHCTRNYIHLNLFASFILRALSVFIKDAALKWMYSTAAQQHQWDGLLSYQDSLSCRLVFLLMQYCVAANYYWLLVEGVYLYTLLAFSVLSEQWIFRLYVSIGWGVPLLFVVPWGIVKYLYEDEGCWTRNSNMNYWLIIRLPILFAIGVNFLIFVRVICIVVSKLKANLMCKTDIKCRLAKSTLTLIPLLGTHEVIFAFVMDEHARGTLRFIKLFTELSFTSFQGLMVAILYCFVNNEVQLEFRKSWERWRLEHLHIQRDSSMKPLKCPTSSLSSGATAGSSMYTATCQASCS
SMILES,Potency,"activity change, negative = inhibition"
COc1ccc(Cc2c(-c3ccc(OC)c(OC)c3)nc3ccc(C)cn23)c(C)c1,inactive,
CCNC(=S)NC1CC2CCCC(C1)N2CCc1ccccc1 (configuration not stated),"inconclusive [inhibitor, partial curve, poor fit]",
O=C(c1ccc(COc2ccccc2Br)cc1)N1CCCCC1,"inconclusive [inhibitor, single point]",
CC(=O)c1ccc(OCCCC(=O)Nc2ccc(Cl)c(S(=O)(=O)N3CCOCC3)c2)cc1,inactive,
CCCn1c(=O)c2sccc2n2c(CCCC(=O)Nc3ccccc3OCC)nnc12,inactive,
O=C(O)c1cccc(S(=O)(=O)N(Cc2ccccc2)c2ccc(Cl)cc2)c1,"inconclusive [inhibitor, single point]",
O=C(NCC1(c2ccccc2)CCCC1)c1ccc(Br)o1,"inconclusive [inhibitor, partial curve, poor fit]",
COC(=O)Cc1ccc(NC(=S)NCCSc2ccc(C)cc2)cc1,"inconclusive [inhibitor, single point]",
Cc1c(C(=O)Nc2ccc(F)cc2)nnn1-c1cccc(C(F)(F)F)c1,"inconclusive [inhibitor, partial curve, poor fit]",
Cc1ccc(CN(C(=O)COc2ccc(C(C)C)cc2)C2CCS(=O)(=O)C2)o1 (configuration not stated),"inconclusive [inhibitor, single point]",
Cc1ccc(N=Cc2cc3c(cc2O)OC(N)=C(C#N)C3c2ccccc2)cc1 (configuration not stated),"inconclusive [inhibitor, partial curve, poor fit]",
Cc1cccc(NC(=O)c2nc[nH]c2C(=O)N[C@@H](C)c2ccccc2)c1,"inconclusive [inhibitor, partial curve, poor fit]",
COc1ccc(CC(=O)N2CC(=O)Nc3ccc(Br)cc3C2c2ccc(F)cc2)cc1 (configuration not stated),"inconclusive [inhibitor, single point]",
COc1cccc(/C=N/Nc2nc3ccccc3n3cnnc23)c1O,"inconclusive [inhibitor, single point]",
O=C(NCCSCc1ccccc1Cl)C1CCN(S(=O)(=O)Cc2ccccc2)CC1,inactive,
COc1ccc(S(=O)(=O)N2CCCCCC2)cc1C(=O)N(C)Cc1ccc(C(C)(C)C)cc1,active: 5.62 µM,
O=S(=O)(N/N=C\c1cn(-c2ccccc2)nc1-c1ccccc1)c1ccccc1,"inconclusive [inhibitor, single point]",
CC1CCN(C(=O)/C(=C/c2ccccc2Cl)c2ccccc2)CC1,"inconclusive [inhibitor, partial curve, poor fit]",
COc1ccc(-c2c(-c3ccccc3OC)sc3ccccc23)cc1OC,"inconclusive [inhibitor, partial curve, poor fit]",
Cc1ccccc1C(=O)Nc1nnc(S(=O)(=O)N(C)Cc2ccc(Cl)cc2)s1,inactive,
Cc1cccc(N2CCN(c3nc(C)cc(C)c3C#N)CC2C)c1 (configuration not stated),"inconclusive [inhibitor, partial curve, poor fit]",
O=C(Cn1nnc(-c2ccc(F)cc2)n1)NC(=O)NC1CCCCC1,"inconclusive [inhibitor, single point]",
CCCCNc1c(-c2cc3ccccc3o2)nc2nc(C)cc(C)n12,inactive,

SMILES,Potency,"activity change, negative = inhibition"
Cc1ccc(CNC(=O)c2nc(-c3ccc(Cl)cc3)n3c2CCCCC3)cc1,"inconclusive [inhibitor, partial curve, poor fit]",
O=C(CCNS(=O)(=O)c1ccccc1)N1CCC(Cc2ccccc2)CC1,"inconclusive [inhibitor, single point]",
O=C(c1ccc2[nH]c3c(c2c1)CCCC3)N1CCN(c2ccc(F)cc2)CC1,"inconclusive [inhibitor, single point]",
Cc1ccc(S(=O)(=O)Nc2nc3ccccc3nc2N2CCc3ccccc3C2)cc1,"inconclusive [inhibitor, single point]",
Cc1ccc(-c2cnc(C(O)c3cc(C)cc(C)c3)[nH]2)cc1 (configuration not stated),"inconclusive [inhibitor, partial curve, poor fit]",
COC(=O)c1ccc2c(=O)n(Cc3ccc(C(=O)NCCCN4CCOCC4)cc3)c(=S)[nH]c2c1,inactive,
COc1cc(-c2cc(C(=O)NCc3ccco3)c3ccccc3n2)cc(OC)c1OC,"inconclusive [inhibitor, partial curve, poor fit]",
C=CCn1c(SCC(=O)N2CCc3ccccc3C2)nc2sc(C)c(C)c2c1=O,"inconclusive [inhibitor, single point]",
COc1ccc(-n2c(/C=C/c3cccc4ccccc34)nc3ccccc3c2=O)cc1Cl,inactive,
Cn1c(=O)c2cc(NC(=S)NCc3ccccc3F)ccc2n1Cc1ccc(F)cc1,"inconclusive [inhibitor, single point]",
CCOC(=O)c1ccc(NC2=CC(c3ccc(O)c(OCC)c3)N(c3ccc(C(=O)OCC)cc3)C2=O)cc1 (configuration not stated),inactive,
COc1ccc(Br)cc1C(=O)Nc1ccccc1N1CCCC1,"inconclusive [inhibitor, partial curve, poor fit]",
Cc1ccc(NC(=O)c2cccc(Oc3ccc([N+](=O)[O-])cc3)c2)c(C(=O)O)c1,"inconclusive [inhibitor, single point]",
COc1ccc(NC(=O)CSc2nnc(Cn3cnc4ccccc43)o2)cc1,inactive,
O=C(COc1ccc(Br)cc1)Nc1ccc(C(=O)Nc2ccccc2C(=O)O)cc1,inactive,
O=C(CCCc1nc(-c2ccc(Cl)cc2)no1)NC1CCCC1,"inconclusive [inhibitor, partial curve, poor fit]",
Fc1ccc(Cn2nnnc2CN2CCc3ccccc3C2)cc1,"inconclusive [inhibitor, partial curve, poor fit]",
O=C(CCSCc1ccccc1F)N1CCN(c2ccc(Cl)cc2)CC1,"inconclusive [inhibitor, single point]",
COCc1ccc(CN2CCCC(C(=O)Nc3ccc(-c4cccc(OC)c4)cc3)C2)o1 (configuration not stated),"inconclusive [inhibitor, single point]",
CC(=O)NC(NC(=S)Nc1ccc(C)cc1C)C(Cl)(Cl)Cl (configuration not stated),"inconclusive [inhibitor, single point]",
COc1ccc(C)cc1S(=O)(=O)NC1CCCCCC1,"inconclusive [inhibitor, single point]",
O=C(Nc1cccc(Cl)c1)c1nc[nH]c1C(=O)NCc1ccccc1,inactive,
COc1ccc(-c2nc3ccccc3o2)cc1NC(=O)CSc1ccc(Cl)cc1,inactive,

SMILES,Potency,"activity change, negative = inhibition"
Cc1cc(C)c(S(=O)(=O)NN=C2c3ccccc3[C@H]3Cc4csc[n+]4[C@@H]23)c(C)c1,inactive,
COc1ccc(/C=N/NC(=O)c2nc(-c3ccccc3)cc(-c3ccccc3)n2)cc1OC,"inconclusive [inhibitor, single point]",
COc1ccc(CC(=O)Nc2c(C(=O)Nc3ccc(F)cc3)oc3ccccc23)cc1OC,inactive,
COCCCNCCOCCSc1ccc(Cl)cc1,"inconclusive [inhibitor, partial curve, poor fit]",
CC(=O)Nc1ccc(N=Cc2c(O)c3ccccc3oc2=O)cc1,inactive,
Cc1cc(C)c2nc(N(CCCN(C)C)C(=O)c3ccc(S(=O)(=O)N4CC(C)OC(C)C4)cc3)sc2c1 (configuration not stated),active: 10 µM,
CN1CCN(C(=O)c2cc3c(C(F)(F)F)nn(C)c3s2)CC1,inactive,
O=C(CCC1CCCC1)Nc1ccccc1-c1ccccc1,"inconclusive [inhibitor, partial curve]",
CC1CN(c2ccccn2)C(C)CN1C(=S)Nc1ccccc1 (configuration not stated),,inconclusive: -31.5% [inhibitor]
NC(=O)c1sc2nc3c(c(-c4cccs4)c2c1N)CCCCC3,"inconclusive [inhibitor, full curve, poor fit]",
COc1cc2ccccc2cc1C(=O)Nc1cc(-c2nc3ccccc3o2)ccc1C,inactive,
Cc1cccc(N(C)C(=O)CN(C)S(=O)(=O)c2ccc3[nH]c4c(c3c2)CCCC4)c1,"inconclusive [inhibitor, single point]",
Cc1ccc(Cn2cc(/C=C(/C#N)C(=O)Nc3cccc(Cl)c3)c3ccccc32)cc1,inactive,
Cc1cc(C)c2oc(C(=O)Nc3nnc(C(C)C)s3)cc(=O)c2c1,inactive,
Cc1ccc(C(=O)NN=Cc2ccc3c(c2)OCO3)cc1,"inconclusive [inhibitor, single point]",
CCc1ccc2nc(N(CCCN(C)C)C(=O)c3ccc(S(=O)(=O)N(C)C4CCCCC4)cc3)sc2c1,"inconclusive [inhibitor, full curve, poor fit]",
COc1cc(C#Cc2ccc3cc(CCCO)oc(=O)c3c2)cc(OC)c1,"inconclusive [inhibitor, full curve, poor fit]",
COc1ccccc1NC(=O)Cn1c(=O)n(CCc2ccccc2)c(=O)c2c3c(sc21)CN(C(C)=O)CC3,inactive,
CCS(=O)(=O)c1ccc2oc(Nc3ccccc3Br)nc2c1,"inconclusive [inhibitor, single point]",
Cc1nnc(SCc2nc(-c3ccc(Cl)cc3)no2)n1-c1ccc(F)cc1,"inconclusive [inhibitor, single point]",
CCCS(=O)(=O)c1c(S(=O)(=O)CCC)c2c(C)cccn2c1C(=O)N/N=C/c1cc(O)cc(O)c1,"inconclusive [inhibitor, single point]",
